Assay results as given in the supplement of paper PMC3334620.
In all, about 33,000 sequences were measured (“E-score (-0.5 to 0.5)”: median about -0.054, highest 2% from about 0.39 on). The list shows a part of the results.

These sequences were tested against Ylr278c (UniProt Q05854) (assay: PBM E-score (8-mer binding enrichment) (E-score (-0.5 to 0.5)); higher = stronger / more preferred TF binding; most listed sequences are background and not binding sites). Settings: protein concentration: 200 nM; construct: GST-DNA-binding domain.
Method in brief: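 Yeast transcription factors, full-length or as DNA-binding domains, were expressed with a GST tag using PURExpress in vitro transcription/translation. At about 100-200 nM they were applied to universal all-10-mer Agilent arrays, double-stranded by primer extension on fresh or once-stripped slides. Fluorescent anti-GST detected bound protein, and masliner normalised the scans. E-scores for ungapped eight-base words, pooled with reverse complements, came from the Universal PBM Analysis Suite.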

Sequence | PBM E-score
AGCGGCGA | 0.292
AGTCAATA | -0.0726
GCTTCCAA | -0.0933
ACGTATAG | -0.122
AACTTACC | -0.0568
GACTAAAA | 0.0741
CTAACAAC | -0.0734
GTTTCCAA | -0.215
AGTCCCTA | -0.108
GGGTCAAA | 0.0394
ATGCGCAG | -0.0382
ATAGGATA | 0.0548
CGGGGCGC | 0.333
ACGGCGGG | 0.207
GGAGCAAA | 0.176
CAAGCCTC | -0.0522
TTCAGAAA | -0.0962
AACAGGCC | 0.0266
ATGTAATG | 0.083
CCAAACCC | 0.124
ACCTCAAT | -0.178
TAATTGGA | -0.0323
AAGTTTCG | 0.039
AAGTGATA | -0.189
AGTACTTG | -0.052

Sequence | PBM E-score
CGAATATA | 0.146
CGATCAGA | -0.167
CACGGAGA | 0.429
AACATGTT | -0.146
CGGGCACA | 0.0593
CTCCAGGA | -0.0335
GCCGATAA | 0.301
CGACCGCC | 0.104
TAAAATCA | -0.062
GCAGGGGC | -0.113
AGAAACCG | 0.0862
GTCTGATA | -0.261
TATTGGAA | -0.256
ACTTTACA | 0.00586
ATTGCCGG | 0.379
CAGCGCAC | -0.0458
AGGCTCGG | 0.135
CGCTCTAC | -0.131
CGGATAAA | 0.368
CCCGACTA | 0.196
TATGATAA | -0.0321
AAACGCAT | -0.123
TCGGGAAA | 0.35
GTCTAATA | -0.16
ATAATCAA | 0.00848

Sequence | PBM E-score
CCATCCGA | 0.0984
ATTTGACA | -0.0871
GCAATTTA | 0.0404
AGAGTGCC | -0.204
CGGCGGAG | 0.461
CTAAGGGC | -0.3
GATCGCTA | -0.0382
GCACTGGA | -0.277
AAAGTAGA | -0.187
CTCGACGA | -0.268
CCTGCTCG | -0.211
GCCAATCC | 0.251
CTCAGGGA | -0.226
ATGCGGCA | 0.0657
ACCGCGGC | 0.305
CAACCTGC | -0.0419
ACTACCGC | 0.0576
AAGGCTCG | -0.164
CCCTTCGG | 0.268
AGACTCCC | -0.167
TGCCTCAA | -0.0367
CACTCCAC | -0.139
AGACTCCT | -0.224
ATCTAGGC | -0.326
TCACGAAA | -0.0706

Sequence | PBM E-score
ACGCTTCG | -0.0176
CGCCGGCC | 0.367
ACTTTCTG | 0.0956
CGACGAAC | 0.151
CGCTTATA | 0.0184
CGTCTTTC | -0.015
AAGCAAAG | -0.195
AGATGCCC | -0.0185
CTGTGTCA | -0.142
GCAGTAGA | -0.167
CCTATTAC | -0.212
CGCGATCA | 0.0483
CTCTCCAC | -0.243
ACGTTTCT | -0.218
GCGAATGA | 0.107
AATCCAAC | -0.204
ACGACCCT | -0.145
CACCTCTG | -0.225
AGGTGGTA | 0.232
AACACACG | -0.0928
TGCACCAA | -0.332
TATGTTCA | -0.0845
AGGCTGCC | -0.106
CATACACC | 0.095
AACGTTGA | -0.0141

Sequence | PBM E-score
CAAGGGTA | -0.136
CGATTGTA | 0.114
ATTGCCTC | -0.0835
CTCGATTA | -0.102
CGGGCGTC | 0.236
CGGAGAGC | 0.389
AGCTAAAT | -0.248
ATATGGCC | 0.027
GAAAACTA | 0.0759
AGAGTTGC | 0.0814
GGAAACAC | 0.213
ACGTGGCT | -0.215
GCAAGGCA | -0.15
AATGCTTG | -0.151
TTGCTAAA | -0.142
GTCCGCCA | 0.293
GCAGATGC | -0.139
AAGCCAAT | 0.0109
CACAGGCG | -0.0948
TAACAAAA | 0.0261
TCGTTGCA | -0.265
GGCCACAC | 0.0375
ACATTGTA | -0.192
GCCGCAGA | 0.143
CATTTCAG | -0.0764

Sequence | PBM E-score
GCTCGCCA | 0.118
ACTGGTAA | -0.0163
GCTCCCAA | -0.214
AAACGTGA | -0.24
AGCAGTTG | 0.0654
ACCAGCTA | -0.265
ATTATCCC | 0.0767
ATGCGCAA | -0.00788
CGTGAAAG | -0.107
ACTGCCCA | -0.151
CTAAGTGC | -0.0901
CCATAGGG | -0.154
GTCTGCGA | -0.207
AGATGATC | -0.1
AGTCGTCG | -0.179
TGCAAGCA | -0.192
CGTCATTC | 0.0753
CATGCTCA | -0.115
AGCCTTCG | -0.241
CATGCCTC | 0.0379
GTAGCTAA | -0.0284
CAGGCAGA | -0.208
CTAGCGGC | 0.0333
GCCGCGTA | 0.144
AGTAGGCC | -0.0194

Sequence | PBM E-score
AACTGGTC | -0.13
AGAGGGTG | -0.101
CGAGGATA | -0.0254
ATCGTGGA | -0.131
GAAGCGAC | 0.00481
AAGCCTAT | -0.0687
AACCAAGG | -0.12
GCCTCAAA | 0.0285
AAAGGCGT | -0.123
CTGCAGGC | -0.0424
GCTAAACA | -0.13
CTATGCCA | -0.313
GGTTATAA | 0.00528
CAACCACG | -0.0753
CGTAGTTC | 0.0309
GGTTAAAC | -0.0116
ATTTGGGC | -0.125
GCCGAGGC | 0.262
CGAGCACG | 0.117
AGCGAGAT | 0.102
ATCGCTTC | 0.0849
CTTAAGGC | -0.0736
GCAAACCA | -0.11
ATCCTAGG | -0.156
CCTACAGA | -0.256

Sequence | PBM E-score
ACCCCGGT | 0.385
CTGGAGCC | 0.0766
AATGGGGT | -0.0839
CAGATCTC | 0.00836
AGGCTCCC | -0.0902
AACCAAAC | -0.0774
AGCACACC | -0.0307
ACCAAAAA | 0.15
ATTTAGGC | -0.113
GACGTCTC | -0.157
GAGTGAAA | 0.0457
TCCAACCA | -0.0655
ATCTAGGG | -0.295
ATCGTGCC | -0.0594
CTGAGCAA | -0.205
CCTTGCAC | -0.0997
GAACGTTC | -0.0972
GAGCGTAC | -0.215
ATTGCCAC | -0.149
AGCGATTA | -0.0841
AGCCGAAG | 0.0537
ATCCATGA | -0.236
CAGGACCA | 0.0244
CCGTGGCC | 0.0234
CTGAAAAG | -0.131

Sequence | PBM E-score
CGTCCGCC | 0.319
GATGCGGA | 0.365
CCTGGAAC | -0.237
GGGTGCAC | -0.0684
CCAGATCA | -0.0898
GTCTCTCA | -0.167
ATAATACC | 0.0972
AGGTCAAC | -0.208
CCTGGCCA | -0.185
ATCGTCGA | -0.239
GCTAGAAC | -0.169
GGGCTGCA | -0.00859
GGCTGTAC | -0.0996
ATCGACCC | 0.0346
AAGGATGG | -0.0635
GGTAATGA | 0.0715
CAAATTAG | -0.0614
AAATGTTA | -0.114
ACTGTCCC | 0.0353
